Measured values published in patent US20220348664A1 (WUXI BIOLOGICS IRELAND, published 2022).

Tests used:
[1] = target: T1, human LAG-3, full length, on cells (W339-FlpIn293.hPro1.A3) (human, UniProt P18627 23-525); experiment: FACS on human LAG-3-expressing 293 cells, PE anti-human IgG detection
T1 construct: whole, on cells; Jurkat cells in the reporter assay; also called human LAG-3 transfected 293 cells; LAG-3 expressing cells
T1 sequence (looked up): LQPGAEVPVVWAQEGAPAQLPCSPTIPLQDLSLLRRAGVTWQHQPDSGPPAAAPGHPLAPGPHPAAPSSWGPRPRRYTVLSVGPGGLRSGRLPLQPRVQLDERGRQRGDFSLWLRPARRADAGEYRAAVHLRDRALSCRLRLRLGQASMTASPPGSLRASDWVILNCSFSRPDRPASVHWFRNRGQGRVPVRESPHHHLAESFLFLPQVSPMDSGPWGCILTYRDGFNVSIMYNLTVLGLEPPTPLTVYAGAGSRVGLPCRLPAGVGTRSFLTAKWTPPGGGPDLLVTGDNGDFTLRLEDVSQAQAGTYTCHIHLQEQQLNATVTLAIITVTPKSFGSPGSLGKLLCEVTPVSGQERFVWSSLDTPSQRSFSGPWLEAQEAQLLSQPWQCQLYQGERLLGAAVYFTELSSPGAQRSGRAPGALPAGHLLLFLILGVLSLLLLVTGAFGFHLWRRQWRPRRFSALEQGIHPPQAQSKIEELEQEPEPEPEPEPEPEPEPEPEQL
Description: MFI of the cells was measured by flow cytometry and analyzed by FlowJo.

[2] = target: T2, human LAG-3 ECD with mouse Fc tag (W339-hPro1.ECD.mFc) (human, UniProt P18627 23-450); experiment: ELISA, human LAG-3 ECD-mFc captured by coated goat anti-mouse F(ab)2, HRP anti-human IgG detection
T2 construct: extracellular domain; also called W339-hProl.ECD.mFc; recombinant human LAG-3 protein
T2 sequence (looked up): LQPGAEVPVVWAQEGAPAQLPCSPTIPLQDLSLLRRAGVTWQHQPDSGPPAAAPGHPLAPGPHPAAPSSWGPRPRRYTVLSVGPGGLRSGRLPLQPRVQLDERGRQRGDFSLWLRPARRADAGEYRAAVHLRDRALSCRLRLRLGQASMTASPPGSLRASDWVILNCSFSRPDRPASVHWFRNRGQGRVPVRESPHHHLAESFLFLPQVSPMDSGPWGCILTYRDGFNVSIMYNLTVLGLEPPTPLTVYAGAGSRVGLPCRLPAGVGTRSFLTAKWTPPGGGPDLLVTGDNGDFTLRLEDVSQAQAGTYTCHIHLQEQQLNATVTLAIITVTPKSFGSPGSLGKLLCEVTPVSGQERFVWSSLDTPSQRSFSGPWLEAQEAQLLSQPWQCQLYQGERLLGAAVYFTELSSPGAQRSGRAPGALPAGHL
Description: (§1) After washing, TMB substrate was added and the color reaction was stopped by 2M HCl. The absorbance at 450 nm was read using a microplate reader.

[3] = target: T3, mouse PD-L1 ECD with mouse Fc tag (W315-mPro1.ECD.mFc) (mouse, UniProt Q9EP73 in part); experiment: ELISA, plate coated with mouse PD-L1 ECD-mFc, HRP anti-human IgG detection
T3 construct: extracellular domain; also called W315-mProl.ECD.mFc; recombinant mouse PD-L1 protein
Description: as §1

[4] = target: T2, human LAG-3 ECD with mouse Fc tag …; experiment: ELISA competition, blocking of mouse Fc-tagged LAG-3 binding to coated human FGL-1 (competitor FGL-1)
Description: After blocking and washing, the mixture was transferred to the plates and incubated at room temperature for 1 h. […] After washing, TMB substrate was added and the color reaction was stopped by 2M HCl. The absorbance at 450 nm was read using a microplate reader.

[5] = target: T4, cynomolgus LAG-3 protein (Sino-90841-C08H) (cynomolgus); experiment: ELISA, cynomolgus LAG-3-His captured by coated anti-His, HRP anti-human IgG detection
T4 construct: Bought; also called recombinant cyno LAG-3 protein

[6] = target: T5, human PD-L1, full length, on CHO-K1 cells (W315-CHO-K1.hPro1.C11) (human, UniProt Q9NZQ7); experiment: FACS competition, blocking of mFc-tagged PD-1 (competitor) binding to PD-L1-expressing CHO-K1 cells
T5 construct: whole, on cells; also called human PD-L1-expressed CHO-K1 cells; PD-L1 expressing cells
Description: The MFI was evaluated by flow cytometry and analyzed by the software FlowJo.

[7] = target: T6, human PD-L1 ECD with mouse Fc tag (W315-hPro1.ECD.mFc) (human, UniProt Q9NZQ7 in part); experiment: ELISA, plate coated with human PD-L1 ECD-mFc, HRP anti-human IgG detection
T6 construct: extracellular domain; also called W315-hProl.ECD.mFc; recombinant human PD-L1 protein
Description: as §1

[8] = target: T2, human LAG-3 ECD with mouse Fc tag …; experiment: FACS competition, blocking of mFc-tagged LAG-3 binding to MHC-II on Raji cells (competitor MHC-II)
Description: The mixture was transferred into the 96-well plates seeded with Raji cells. Goat anti-mouse IgG Fc-PE antibody was used to detect the binding of LAG-3 protein to Raji cells. The MFI was evaluated by flow cytometry and analyzed by the software FlowJo.

[9] = target: human PD-L1 protein (SPR analyte) (human, UniProt Q9NZQ7 in part, limits assumed); experiment: SPR (Biacore 8K), antibody captured on anti-human IgG Fc chip, antigen as analyte, 1:1 fit
Description: (§2) The sensorgrams of blank surface and buffer channel were subtracted from the test sensorgrams. The experimental data was fitted by 1:1 model using Langmiur analysis.

[10] = target: cyno PD-L1 protein (SPR analyte) (cynomolgus, UniProt G7PSE7 19-238); experiment: as above
Chain of UniProt G7PSE7 (G7PSE7 entry or part of it): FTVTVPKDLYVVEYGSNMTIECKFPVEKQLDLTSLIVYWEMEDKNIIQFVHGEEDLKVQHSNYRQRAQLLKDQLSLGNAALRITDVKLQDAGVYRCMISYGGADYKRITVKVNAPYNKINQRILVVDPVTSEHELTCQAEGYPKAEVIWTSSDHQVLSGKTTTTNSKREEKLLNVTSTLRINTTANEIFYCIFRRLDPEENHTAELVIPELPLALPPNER
Description: as §2

[11] = target: mouse PD-L1 protein (SPR analyte) (mouse, UniProt Q9EP73 in part, limits assumed); experiment: as above
Description: as §2

[12] = target: T7, mouse LAG-3 protein (SPR analyte) (mouse, UniProt Q61790 24-442, limits assumed); experiment: as above
T7 sequence (looked up): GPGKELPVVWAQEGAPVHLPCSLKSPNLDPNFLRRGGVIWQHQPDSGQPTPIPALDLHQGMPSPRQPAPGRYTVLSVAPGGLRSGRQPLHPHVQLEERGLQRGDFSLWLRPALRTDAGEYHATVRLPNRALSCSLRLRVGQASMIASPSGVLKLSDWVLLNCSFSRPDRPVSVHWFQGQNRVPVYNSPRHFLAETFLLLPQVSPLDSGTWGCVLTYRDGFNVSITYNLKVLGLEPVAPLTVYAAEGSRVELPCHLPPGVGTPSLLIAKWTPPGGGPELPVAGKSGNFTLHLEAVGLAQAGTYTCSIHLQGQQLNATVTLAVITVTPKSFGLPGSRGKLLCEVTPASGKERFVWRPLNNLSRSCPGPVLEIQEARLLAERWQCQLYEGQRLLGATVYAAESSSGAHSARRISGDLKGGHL
Description: as §2

[13] = target: T8, human LAG-3 protein (SPR analyte) (human, UniProt P18627 23-450, limits assumed); experiment: as above
T8 sequence (looked up): T2 sequence (looked up)
Description: as §2

[14] = target: T9, human LAG-3 ECD with His tag (W339-hPro1.ECD.His) (human, UniProt P18627 23-450); experiment: dual binding ELISA after 14 days in human serum at 37 C: antibody on captured human LAG-3 ECD-His, detected with biotin-labelled human PD-L1 ECD-mFc
T9 construct: extracellular domain; also called W339-hProl.ECD.His; human LAG-3 protein
T9 sequence (looked up): T2 sequence (looked up)
Description: as §1

[15] = target: T9, human LAG-3 ECD with His tag …; experiment: dual binding ELISA after 1 day in human serum at 37 C: antibody on captured human LAG-3 ECD-His, detected with biotin-labelled human PD-L1 ECD-mFc
Description: as §1

[16] = target: T9, human LAG-3 ECD with His tag …; experiment: dual binding ELISA after 4 days in human serum at 37 C: antibody on captured human LAG-3 ECD-His, detected with biotin-labelled human PD-L1 ECD-mFc
Description: as §1

[17] = target: T9, human LAG-3 ECD with His tag …; experiment: dual binding ELISA after 7 days in human serum at 37 C: antibody on captured human LAG-3 ECD-His, detected with biotin-labelled human PD-L1 ECD-mFc
Description: as §1

[18] = target: T9, human LAG-3 ECD with His tag …; experiment: dual binding ELISA: antibody titrated on human LAG-3 ECD-His captured by anti-His, detected with biotin-labelled human PD-L1 ECD-mFc and HRP-streptavidin
Description: as §1

[19] = target: human CD4 (human, UniProt P01730 in part, limits assumed); experiment: ELISA, plate coated with human CD4
Description: Plates were coated with human CD4 at 1 μg/ml overnight at 4° C. […] The plates were then washed and subsequently incubated with corresponding secondary antibody for 60 min. After washing, TMB substrate was added and the color reaction was stopped by 2M HCl. The absorbance at 450 nm was read using a microplate reader.

[20] = target: T9, human LAG-3 ECD with His tag …; experiment: dual binding ELISA after 0 days in human serum at 37 C: antibody on captured human LAG-3 ECD-His, detected with biotin-labelled human PD-L1 ECD-mFc
Description: as §1

B1: W3669-U15T4.G1-1.uIgG1LALA (bispecific antibody)
chain: EVQLVESGGGLVQPGGSLRLSCAASGHFSNLAVNWFRQAPGKERELVAGILWSGGSTFYADSVKGRFTISRGNAENMLYLQMNSLRAEDTAVYYCNTGTNWGQGTLVTVSS[human IgG1 Fc with changes left out]GGGGSGGGGSGGGGSGGGGSGGGGSGGGGSGGGGSQVQLVESGGGVVQPGGSLRLSCAASGLTLSQYTMGWFRQAPGKERELVAAIHWTSSVTDYADSVYGRFTISRDDSKNTGYLQMNSLRAEDTAVYYCAATHYYTHRGPFDYWGQGTLVTVSS
notes: Humanized llama VHHs on a human IgG1 Fc with L234A L235A; also called W3669 antibody; W3669 bispecific antibody
- EC50 [1]: 0.735 nM
- EC50 [2]: 3.07 nM
- EC50 [3]: 0.05 nM
- IC50 [4]: 7.53 nM
- EC50 [5]: 0.25 nM
- IC50 [6]: 0.11 nM
- EC50 [7]: 0.025 nM
- IC50 [8]: 1.65 nM
- Kd [9]: 0.35 nM
- koff [9]: 0.000284 s⁻¹
- kon [9]: 812000 M⁻¹ s⁻¹
- Kd [10]: 0.518 nM
- koff [10]: 0.000458 s⁻¹
- kon [10]: 884000 M⁻¹ s⁻¹
- Kd [11]: 20.7 nM
- koff [11]: 0.0101 s⁻¹
- kon [11]: 489000 M⁻¹ s⁻¹
- Kd [12]: < 0.00575 nM
- koff [12]: < 1e-05 s⁻¹
- kon [12]: 1.74e+06 M⁻¹ s⁻¹
- Kd [13]: 0.441 nM
- koff [13]: 2.3e-05 s⁻¹
- kon [13]: 52200 M⁻¹ s⁻¹
- EC50 [14]: 0.04 nM
- EC50 [15]: 0.04 nM
- EC50 [16]: 0.04 nM
- EC50 [17]: 0.05 nM
- EC50 [18]: 0.293 nM
- binding result [19]: no binding (tested: 67 nM)
- EC50 [20]: 0.04 nM
